From US20230250147A1 (Sanofi, published 2023)

Target: human glucagon-like peptide-1 (GLP-1) receptor (human, UniProt P43220 24-463)
Experiment: cell-based or functional assay

B1: GLP-1RA/FGF21 Fc fusion protein SEQ ID NO: 92 (Fc fusion)
chain: HGEGTFTSDLSIQLEEEAVRLFIEWLLATGPVSGAPPPSGGGGGGGSGGGGSGGGGSA[… human IgG4 Fc with changes …]GGGSGSAHPIPDSSPLLQFGGQVRQRYLYTDDACQTEAHLEIREDGTVGGAADQSPESLLQLKALKPGVIQILGVKTSRFLCQRPDGALYGSLHFDPEACSFRELLLEDGYNVYQSEAHGLPLHLPGCKSPHRDPAPRGPARFLPLPGLPPAPPEPPGILAPQPPDVGSSDPLSMVGSQGRSPSYAS
HTRF cAMP EC50: 0.0589 nM

B2: GLP-1RA/FGF21 Fc fusion protein SEQ ID NO: 94 (Fc fusion)
chain: HGEGTFTSDLSIQLEEEAVQLFIEWLLATGPVSGAPPPSGGGGGGGSGGGGSGGGGSA[… human IgG4 Fc with changes …]GGGSGSAHPIPDSSPLLQFGGQVRQRYLYTDDACQTEAHLEIREDGTVGGAADQSPESLLQLKALKPGVIQILGVKTSRFLCQRPDGALYGSLHFDPEACSFRELLLEDGYNVYQSEAHGLPLHLPGCKSPHRDPAPRGPARFLPLPGLPPAPPEPPGILAPQPPDVGSSDPLSMVGSQGRSPSYAS
HTRF cAMP EC50: 0.0665 nM

B3: GLP-1RA/FGF21 Fc fusion protein SEQ ID NO: 102 (Fc fusion)
chain: HSQGTFTSDLSKQLESRRARRFIEWLLATGPESGAPPPSGGGGGGGSGGGGSGGGGSA[… human IgG4 Fc with changes …]GGGSGSAHPIPDSSPLLQFGGQVRQRYLYTDDACQTEAHLEIREDGTVGGAADQSPESLLQLKALKPGVIQILGVKTSRFLCQRPDGALYGSLHFDPEACSFRELLLEDGYNVYQSEAHGLPLHLPGCKSPHRDPAPRGPARFLPLPGLPPAPPEPPGILAPQPPDVGSSDPLSMVGSQGRSPSYAS
HTRF cAMP EC50: 0.17 nM

B4: GLP-1RA/FGF21 Fc fusion protein SEQ ID NO: 100 (Fc fusion)
chain: HGEGTFTSDLSKQLEEEAVRLFIEWLLATGPSSGEPPPEGGGGGGGSGGGGSGGGGSA[… human IgG4 Fc with changes …]GGGSGSAHPIPDSSPLLQFGGQVRQRYLYTDDACQTEAHLEIREDGTVGGAADQSPESLLQLKALKPGVIQILGVKTSRFLCQRPDGALYGSLHFDPEACSFRELLLEDGYNVYQSEAHGLPLHLPGCKSPHRDPAPRGPARFLPLPGLPPAPPEPPGILAPQPPDVGSSDPLSMVGSQGRSPSYAS
HTRF cAMP EC50: 0.015 nM

B5: GLP-1RA/FGF21 Fc fusion protein SEQ ID NO: 93 (Fc fusion)
chain: HGEGTFTSDLSIQLEEEAVQEFIEWLLATGPVSGAPPPSGGGGGGGSGGGGSGGGGSA[… human IgG4 Fc with changes …]GGGSGSAHPIPDSSPLLQFGGQVRQRYLYTDDACQTEAHLEIREDGTVGGAADQSPESLLQLKALKPGVIQILGVKTSRFLCQRPDGALYGSLHFDPEACSFRELLLEDGYNVYQSEAHGLPLHLPGCKSPHRDPAPRGPARFLPLPGLPPAPPEPPGILAPQPPDVGSSDPLSMVGSQGRSPSYAS
HTRF cAMP EC50: 0.0484 nM

B6: GLP-1RA/FGF21 Fc fusion protein SEQ ID NO: 101 (Fc fusion)
chain: HAQGTFTSDLSKQLESRRAQEFIEWLLATGPESGAPPPSGGGGGGGSGGGGSGGGGSA[… human IgG4 Fc with changes …]GGGSGSAHPIPDSSPLLQFGGQVRQRYLYTDDACQTEAHLEIREDGTVGGAADQSPESLLQLKALKPGVIQILGVKTSRFLCQRPDGALYGSLHFDPEACSFRELLLEDGYNVYQSEAHGLPLHLPGCKSPHRDPAPRGPARFLPLPGLPPAPPEPPGILAPQPPDVGSSDPLSMVGSQGRSPSYAS
HTRF cAMP EC50: 0.0835 nM

B7: GLP-1RA/FGF21 Fc fusion protein SEQ ID NO: 97 (Fc fusion)
chain: HGEGTFTSDLSILLEEEAVRLFIEWLLATGPVSGAPPPSGGGGGGGSGGGGSGGGGSA[… human IgG4 Fc with changes …]GGGSGSAHPIPDSSPLLQFGGQVRQRYLYTDDACQTEAHLEIREDGTVGGAADQSPESLLQLKALKPGVIQILGVKTSRFLCQRPDGALYGSLHFDPEACSFRELLLEDGYNVYQSEAHGLPLHLPGCKSPHRDPAPRGPARFLPLPGLPPAPPEPPGILAPQPPDVGSSDPLSMVGSQGRSPSYAS
HTRF cAMP EC50: 0.0404 nM

B8: GLP-1RA/FGF21 Fc fusion protein SEQ ID NO: 105 (Fc fusion)
chain: HGEGTFTSDKSQLLEERLAHLFIEWLIKGGHSSIKPPPKGGGGGGGSGGGGSGGGGSA[… human IgG4 Fc with changes …]GGGSGSAHPIPDSSPLLQFGGQVRQRYLYTDDACQTEAHLEIREDGTVGGAADQSPESLLQLKALKPGVIQILGVKTSRFLCQRPDGALYGSLHFDPEACSFRELLLEDGYNVYQSEAHGLPLHLPGCKSPHRDPAPRGPARFLPLPGLPPAPPEPPGILAPQPPDVGSSDPLSMVGSQGRSPSYAS
HTRF cAMP EC50: 0.00812 nM

B9: GLP-1RA/FGF21 Fc fusion protein SEQ ID NO: 107 (Fc fusion)
chain: YGEGTFTSDKSQLLEERLAHLFIEWLIAGGHSKIRPPPKGGGGGGGSGGGGSGGGGSA[… human IgG4 Fc with changes …]GGGSGSAHPIPDSSPLLQFGGQVRQRYLYTDDACQTEAHLEIREDGTVGGAADQSPESLLQLKALKPGVIQILGVKTSRFLCQRPDGALYGSLHFDPEACSFRELLLEDGYNVYQSEAHGLPLHLPGCKSPHRDPAPRGPARFLPLPGLPPAPPEPPGILAPQPPDVGSSDPLSMVGSQGRSPSYAS
HTRF cAMP EC50: 0.186 nM

B10: GLP-1RA/FGF21 Fc fusion protein SEQ ID NO: 106 (Fc fusion)
chain: HGEGTFTSDKSQLLEERLAHLFIEWLIAGGHSSGRPPPKGGGGGGGSGGGGSGGGGSA[… human IgG4 Fc with changes …]GGGSGSAHPIPDSSPLLQFGGQVRQRYLYTDDACQTEAHLEIREDGTVGGAADQSPESLLQLKALKPGVIQILGVKTSRFLCQRPDGALYGSLHFDPEACSFRELLLEDGYNVYQSEAHGLPLHLPGCKSPHRDPAPRGPARFLPLPGLPPAPPEPPGILAPQPPDVGSSDPLSMVGSQGRSPSYAS
HTRF cAMP EC50: 0.00966 nM

B11: GLP-1RA/FGF21 Fc fusion protein SEQ ID NO: 109 (Fc fusion)
chain: YGEGTFTSDKSQLLEKELAHLFIEWLIAGGHKSGRPSPKGGGGGGGSGGGGSGGGGSA[… human IgG4 Fc with changes …]GGGSGSAHPIPDSSPLLQFGGQVRQRYLYTDDACQTEAHLEIREDGTVGGAADQSPESLLQLKALKPGVIQILGVKTSRFLCQRPDGALYGSLHFDPEACSFRELLLEDGYNVYQSEAHGLPLHLPGCKSPHRDPAPRGPARFLPLPGLPPAPPEPPGILAPQPPDVGSSDPLSMVGSQGRSPSYAS
HTRF cAMP EC50: 0.278 nM

B12: GLP-1RA/FGF21 Fc fusion protein SEQ ID NO: 112 (Fc fusion)
chain: HGEGTFTSDKSQLLEKRLAHLFIEWLLAGGPSSGRPPPKGGGGGGGSGGGGSGGGGSA[… human IgG4 Fc with changes …]GGGSGSAHPIPDSSPLLQFGGQVRQRYLYTDDACQTEAHLEIREDGTVGGAADQSPESLLQLKALKPGVIQILGVKTSRFLCQRPDGALYGSLHFDPEACSFRELLLEDGYNVYQSEAHGLPLHLPGCKSPHRDPAPRGPARFLPLPGLPPAPPEPPGILAPQPPDVGSSDPLSMVGSQGRSPSYAS
HTRF cAMP EC50: 0.00723 nM

B13: GLP-1RA/FGF21 Fc fusion protein SEQ ID NO: 108 (Fc fusion)
chain: YGEGTFTSDKSQLLEERLVHLFIEWLIAGGHSKIKPPPKGGGGGGGSGGGGSGGGGSA[… human IgG4 Fc with changes …]GGGSGSAHPIPDSSPLLQFGGQVRQRYLYTDDACQTEAHLEIREDGTVGGAADQSPESLLQLKALKPGVIQILGVKTSRFLCQRPDGALYGSLHFDPEACSFRELLLEDGYNVYQSEAHGLPLHLPGCKSPHRDPAPRGPARFLPLPGLPPAPPEPPGILAPQPPDVGSSDPLSMVGSQGRSPSYAS
HTRF cAMP EC50: 0.326 nM
